Data from the supplement of paper PMC3334620.
In all, about 33,000 sequences were measured (“E-score (-0.5 to 0.5)”: median about -0.012, highest 2% from about 0.29 on). Some of the results follow.

target: T1, Ybr033w (UniProt P38073); assay: PBM E-score (8-mer binding enrichment) (E-score (-0.5 to 0.5)); higher = stronger / more preferred TF binding; most listed sequences are background and not binding sites; conditions: protein concentration: 200 nM; construct: GST-full length
T1 sequence: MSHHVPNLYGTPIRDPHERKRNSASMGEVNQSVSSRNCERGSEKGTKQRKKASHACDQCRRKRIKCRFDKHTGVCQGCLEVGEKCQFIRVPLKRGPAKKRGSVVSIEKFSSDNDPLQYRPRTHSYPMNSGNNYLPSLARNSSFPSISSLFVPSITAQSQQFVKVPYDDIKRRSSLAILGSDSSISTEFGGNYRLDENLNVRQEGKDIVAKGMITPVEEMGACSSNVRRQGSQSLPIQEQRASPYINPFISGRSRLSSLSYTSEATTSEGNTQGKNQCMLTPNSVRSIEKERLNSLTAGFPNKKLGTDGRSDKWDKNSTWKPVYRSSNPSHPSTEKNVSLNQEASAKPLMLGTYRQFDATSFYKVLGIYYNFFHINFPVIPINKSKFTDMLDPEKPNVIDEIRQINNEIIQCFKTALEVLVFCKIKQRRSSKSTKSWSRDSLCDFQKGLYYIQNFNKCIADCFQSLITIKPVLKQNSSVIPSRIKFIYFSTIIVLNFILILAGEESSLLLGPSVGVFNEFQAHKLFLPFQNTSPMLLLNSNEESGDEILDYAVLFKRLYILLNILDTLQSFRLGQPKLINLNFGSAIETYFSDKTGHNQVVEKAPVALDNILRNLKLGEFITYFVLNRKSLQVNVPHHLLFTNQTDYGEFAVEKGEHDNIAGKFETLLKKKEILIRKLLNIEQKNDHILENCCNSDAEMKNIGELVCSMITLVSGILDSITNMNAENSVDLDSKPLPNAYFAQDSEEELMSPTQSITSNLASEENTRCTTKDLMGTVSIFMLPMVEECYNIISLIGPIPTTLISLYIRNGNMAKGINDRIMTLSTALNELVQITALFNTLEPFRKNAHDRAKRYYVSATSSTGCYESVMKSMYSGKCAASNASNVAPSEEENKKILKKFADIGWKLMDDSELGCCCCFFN
In short: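 Each ungapped eight-base word and its reverse complement, pooled, received an E-score from the Universal PBM Analysis Suite. Underlying scans, normalised with masliner, recorded fluorescent anti-GST bound to GST-tagged yeast transcription factors. These were applied at about 100-200 nM to universal all-10-mer Agilent arrays double-stranded by primer extension.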

Sequence | PBM E-score
CAAAATAC | 0.217
ATCACCTG | -0.0393
TAAGTGAA | 0.293
GGCAAGAC | -0.254
CGCCACCC | -0.128
GACCCAAA | -0.0192
CCTAGATC | -0.148
GCTAAAGC | -0.0232
ATTATTGG | 0.127
ACTCTGCA | 0.057
CGTACAGC | -0.229
CAGATCGG | -0.116
GCGAGCCA | -0.153
ACCATTTC | 0.118
CCCGTAAG | -0.135
AACCCATC | -0.108
ATGGACAT | 0.12
CCTCTTTA | -0.0818
GTAGTGTA | 0.146
CGGTTCAG | -0.104
CAGAAATG | -0.00635
GGGTGAGA | -0.224
ACCAAACA | 0.1
CACCACAG | -0.0521
CCCTGACC | -0.144

Sequence | PBM E-score
CGACTCTA | -0.0745
GAGAGATA | 0.0945
CCTACAAG | -0.0823
ATGATAGA | 0.11
ACAGCCCC | -0.258
CTCCCGAC | -0.195
AAGGCTTC | -0.0959
GCGCAGAC | 0.12
CCTTTCAA | -0.00501
CCAGAAGA | 0.0748
ACGCGATG | -0.0355
GTATAGAA | -0.0445
CCATCAGA | -0.179
ACCTCAAC | -0.00288
CAAAGAAC | 0.184
CCCTCAAG | -0.186
AGGATCAC | -0.0786
CTCGGTGA | 0.00892
CTGACGTA | -0.108
ACTGTATA | 0.207
CTAGCGTC | -0.201
AGTGATCG | -0.189
ATGAACGG | -0.119
TACGTCCA | -0.0957
CATGAAAC | 0.0906

Sequence | PBM E-score
ATCTGTAC | 0.166
ACGGCGAA | -0.0227
GTCGACGA | 0.00328
CCCTGGTA | -0.22
CAACCTAA | 0.198
GAAAGGCA | 0.0425
GGAGTGGA | 0.105
CTGGTGCC | -0.155
TGGACGAA | -0.0336
CGTTGAGC | 0.00379
ACGCCCGT | -0.0902
ATACCATA | 0.297
CGACACCG | -0.167
AGCTATGG | -0.121
CATTAAGG | 0.102
AAATAACT | 0.294
CTGCTTTA | 0.269
CACCTGAA | 0.149
GGACAGTA | 0.138
CTACCGGA | -0.0344
CACCTATC | -0.0279
TCGGTTCA | -0.0353
GCTCGACC | -0.134
CGGACTTC | -0.171
TAAAATAA | 0.261

Sequence | PBM E-score
ACAGTAAT | 0.233
AAGTCGCG | 0.0728
AACGAGCG | -0.17
GATGCTCA | -0.113
AATCTGGC | 0.00473
ATTCTGCG | -0.0245
AGGGCAGG | -0.163
CGGGAGGA | -0.0519
GATGGCGA | 0.0807
AGAATACA | 0.121
AATATCGT | 0.33
GTAGACCA | 0.0341
ATTGGATA | 0.223
CGTTTCAA | -0.0281
TGCTAACA | 0.154
ATCTTATG | 0.0675
ACCTGGCA | -0.0945
AAATTTCA | -0.0112
ACTGGGTA | -0.0447
TACCACTA | 0.105
AAGAAACA | 0.201
ACCAGTAT | -0.104
GGGCACCC | -0.248
ATCAAATC | 0.0507
CAGGACAG | -0.0027

Sequence | PBM E-score
GAGGCCAA | -0.128
CCGATTAC | -0.0157
AATTGAGA | 0.0659
GCACGGCC | -0.169
ATGGGACA | -0.128
ACTTACTC | 0.0333
CATTAGAA | 0.167
ACATTAGC | 0.181
ACTATGAT | 0.102
CGCCCGTA | -0.327
CGCCTCGC | -0.13
ATTTATAG | 0.0429
AATGATCG | -0.046
AGCTTGTC | -0.107
ACCACGAG | 0.0793
ATATTACG | 0.333
CGGACGCA | -0.0392
CCACCCCA | -0.0528
CATAAGTA | 0.0645
CAAACTGA | 0.14
AATGGTAA | 0.234
CGACCGCG | -0.133
ACACACCT | -0.00793
GAAATAAA | 0.247
CGCCTGAG | -0.039

Sequence | PBM E-score
CGATCACA | 0.168
GAGACATA | 0.146
GCATTCAA | 0.154
GCTGTTGA | -0.00862
CCCTAATA | 0.00892
GTGTGCAA | -0.13
ACGATGAG | 0.113
GAGACCAA | 0.0622
CTACAGCA | 0.0371
CAATGACA | 0.14
GATCTTCA | 0.0894
GCCTTTTA | -0.102
ACTAAAAA | 0.238
AATTAAGA | 0.171
CGTTCTAG | -0.0499
CTAGACAG | -0.0284
CTCGAAAG | -0.0118
ACTCCCAA | -0.0182
ACTAGTAC | 0.0281
GAGTCTGC | -0.23
AAGCTGTC | -0.0872
CCCTAACA | 0.111
GAACGTAA | 0.182
CAGCCTTC | -0.0807
AGTCCCGC | -0.35

Sequence | PBM E-score
ACGTTGGA | 0.0581
GTACTGGA | 0.135
CCAAGTAC | -0.101
AGGCCCTC | -0.217
AACGAGAT | -0.0468
GATTCTCA | 0.0255
AGAACGTC | -0.0127
AGGGACGC | -0.108
ACCTGCGC | 0.0485
AGGCATCG | -0.0542
GAGGGCCA | -0.161
AAAACGCC | 0.0866
ACCTCTTC | 0.156
GCTATCTA | -0.213
CTGTTGCA | 0.0729
AGACTGGC | -0.155
AAAACACT | 0.169
CTTCACTC | -0.0348
GGCTTACC | -0.183
CGTTAAGC | -0.0125
CGGTATAA | 0.0894
CGGTTAAC | -0.115
